Laboratory results from PubChem BioAssay AID1468 (National Center for Advancing Translational Sciences (NCATS), 2008).
Out of some 280,000 compounds screened, about 1,100 (0.39%) were called active. The shares of active, inactive and inconclusive entries below differ from those in the screen. The call rests on the fitted dose curve; in most records, active means well fitted inhibition curve with a large enough effect; inconclusive means small, poorly fitted or top-dose-only effect, or effect the other way; inactive means flat fitted curve, though single readings scatter. A potency beside an inconclusive call is a rough fit, not a confirmed value.

molecular target: Microtubule-associated protein tau (Homo sapiens) (UniProt P10636); assay: qHTS for Inhibitors of Tau Fibril Formation, Fluorescence Polarization; details: K18 P301L tau heparin fibrillization, Alexa594 FP, 6 h; series mostly up to 57.7 µM; activity, negative = inhibition: at the top concentration; further: nearly all actives have a fitted effect of over 55% in size
Chain of UniProt P10636 (P10636 whole entry, looked up): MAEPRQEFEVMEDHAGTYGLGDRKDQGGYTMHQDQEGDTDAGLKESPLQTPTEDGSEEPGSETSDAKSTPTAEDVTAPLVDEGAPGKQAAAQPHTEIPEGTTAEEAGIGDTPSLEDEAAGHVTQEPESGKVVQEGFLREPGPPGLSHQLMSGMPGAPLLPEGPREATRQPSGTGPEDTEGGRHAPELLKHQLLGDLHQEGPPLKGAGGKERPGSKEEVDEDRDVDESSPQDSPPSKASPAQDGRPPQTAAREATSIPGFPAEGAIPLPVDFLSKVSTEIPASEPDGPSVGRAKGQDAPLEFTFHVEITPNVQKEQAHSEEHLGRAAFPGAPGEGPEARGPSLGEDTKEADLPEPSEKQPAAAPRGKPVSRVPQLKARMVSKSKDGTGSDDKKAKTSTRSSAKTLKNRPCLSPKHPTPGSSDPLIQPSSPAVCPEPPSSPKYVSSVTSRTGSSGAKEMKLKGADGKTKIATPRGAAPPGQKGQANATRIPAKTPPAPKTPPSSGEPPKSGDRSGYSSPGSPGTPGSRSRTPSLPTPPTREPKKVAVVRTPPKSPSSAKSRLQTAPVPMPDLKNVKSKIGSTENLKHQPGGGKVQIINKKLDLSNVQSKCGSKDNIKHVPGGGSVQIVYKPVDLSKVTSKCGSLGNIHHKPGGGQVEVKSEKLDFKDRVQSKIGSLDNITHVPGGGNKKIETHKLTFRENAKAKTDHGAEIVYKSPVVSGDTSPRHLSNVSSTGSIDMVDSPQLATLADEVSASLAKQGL
Outline: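 Steps: dispense K18 P301L tau (15 uM plus 0.24 uM Alexa 594 tracer, final) in pH 7 sodium acetate; add compound; add heparin (20 uM final); incubate 6 hr, 37 C; add ThT (30 uM final); after 1 hr ambient, read FP.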
On the % scale 0 is the no-effect control and ±100 the full control effect; potency means the concentration at half of the fitted maximal effect; tags describe the fitted curve by direction and shape.

Potency, active:
COCCCNC(=O)c1ccc(-n2c(-c3ccccc3)cc3c2CCC(C)C3)cc1 (centres undefined) 12.6 µM

Potency, inconclusive:
CCCN(CCC)CC(O)Cn1cc(/C=C/C(=O)c2ccc(Br)cc2)c2ccccc21 (centres undefined) 1.41 µM [inhibitor, full curve, poor fit]
C=CCOc1c(OC)cc(/C=N/Nc2cccc(C(=O)O)c2)c(Br)c1Br 3.98 µM [activator, full curve]
O=C(Nc1cn(-c2ccccc2)nc1-c1ccccc1)c1ccccc1 11.2 µM [inhibitor, partial curve, poor fit]
Cc1nc(CCNC(=O)CC2C(=O)NCCN2Cc2ccoc2)nc2c1CCCC2 (centres undefined) 17.8 µM [inhibitor, single point]
CC(C)c1ccc2oc(-c3ccc(NC(=O)c4cccc(Br)c4)cc3)nc2c1 6.31 µM [inhibitor, partial curve, poor fit]
CCn1c(=N)n(CC(=O)c2ccc(Br)s2)c2ccccc21 1.26 µM [activator, partial curve, poor fit]
Cc1nc(SCC(=O)c2cccc([N+](=O)[O-])c2)n[nH]1 0.501 µM [inhibitor, full curve, poor fit]
Cc1cc(C)n(C(=O)CCC2COc3ccccc3O2)n1 (centres undefined) 44.7 µM [inhibitor, single point]
Cc1c(C(=O)Nc2cccc(-c3nc4ccccc4s3)c2)oc2ccccc12 0.126 µM [inhibitor, full curve]
CSc1nn(Cc2cccc(C)c2)c(N)c1S(=O)(=O)c1ccccc1 20 µM [inhibitor, single point]
COc1ccc(CNC(=O)c2ccc(NC(=O)N3CCSc4ccccc43)cc2)cc1 20 µM [inhibitor, partial curve]
Cc1ccccc1NC(=S)N/N=C/c1ccc(O)cc1O 0.316 µM [activator, full curve, poor fit]
O=C(NNC(=O)C1CC2CCC1C2)c1sc2ccccc2c1Cl (centres undefined) 0.0224 µM [activator, full curve, poor fit]
C#CCOc1ccc(C2CC(=O)Nc3c2c(C)nn3-c2nc(C)cc(C)n2)cc1 (centres undefined) 39.8 µM [activator, single point]
Cc1cc(NC(=O)C2CCN(S(=O)(=O)c3cccc4nsnc34)CC2)ccc1Br 15.8 µM [inhibitor, partial curve]
NS(=O)(=O)c1ccc(NC(=O)C(=O)Nc2ccc3nc4n(c(=O)c3c2)CCCCC4)cc1 39.8 µM [inhibitor, single point]
O=C1CC(c2ccccc2)=NN1c1nc(-c2ccccc2)cs1 35.5 µM [inhibitor, single point]
CCCn1nc(NC(=O)c2cccs2)c2cc3ccc(C)cc3nc21 39.8 µM [inhibitor, single point]
COc1ccc(S(=O)(=O)Nc2ccc(-c3cn4ccsc4n3)cc2)cc1C 22.4 µM [inhibitor, single point]
COc1ccc(C(=O)/C=C\N2CCOCC2)cc1 44.7 µM [inhibitor, single point]
O=C(CCCN1C(=O)/C(=C/c2ccccc2)SC1=S)Nc1cccc(O)c1 22.4 µM [inhibitor, single point]
COc1ccc(-c2cc(C(=O)Oc3ccc([N+](=O)[O-])cc3)c3ccccc3n2)cc1 15.8 µM [inhibitor, partial curve, poor fit]
Cc1cccc(CSc2nc(-c3cccs3)ccc2C#N)c1 8.91 µM [inhibitor, partial curve]
COc1ccc(CCN2C(=O)c3[nH]nc(-c4ccccc4O)c3C2c2cccc(Cl)c2)cc1 (centres undefined) 35.5 µM [inhibitor, single point]
CCCOc1ccc(-c2nn(-c3ccccc3)cc2/C=C2\SC(N)=NC2=O)cc1C 10 µM [inhibitor, partial curve]
O=c1c2cccnc2n(-c2ccccc2)n1Cc1c(Cl)cccc1Cl 10 µM [inhibitor, partial curve]
Cc1ccc(CSc2ccc(-c3ccc4c(c3)OCO4)nn2)cc1 0.141 µM [activator, full curve, poor fit]
O=C(CSc1ncn[nH]1)c1cccc([N+](=O)[O-])c1 39.8 µM [inhibitor, single point]

activity, negative = inhibition, inactive:
Cc1ccc(Nc2cc(C)nn2-c2nc(C)cc(C)n2)cc1 3.13%
CSCC[C@@H]1NC(=O)C/C=C\[C@@H](C)COC(=O)[C@@H](C)COC1=O 2.74% [at 11.6 µM]
CCc1ccc(CNCc2c(C(=O)O)n(Cc3ccc(C)cc3)c3cc(C)ccc23)cc1 5.8%
C/C(Cn1nc([N+](=O)[O-])cc1C)=N\NC(=O)COc1ccccc1[N+](=O)[O-] -3.4%
Cc1ccc(Cn2ccnc2SCC(=O)Nc2nc3ccccc3s2)cc1 -5.16%
Cc1cccc(OCCCCCn2ccnc2)c1 -6.69%
C=CCC1Cc2c(cccc2[N+](=O)[O-])C(CC=C)N1 (centres undefined) -4.58%
CCOC(=O)N1CCC2(CC1)OC(=O)C(C)=C2C(=O)NCc1cccc(F)c1 -4.07%
CCc1[nH]nc2c1C1(C(=O)N(Cc3ccccc3)c3ccccc31)C(C#N)=C(N)O2 (centres undefined) -6.4%
CCCCCCCn1c2c(c(=N)c3ccccc31)CCC2 13%
O=C(NNc1nc2c(F)cc(F)cc2s1)C1=COCCO1 1.3%
CC(C)Sc1nc2sc(-c3ccccc3)cc2c(=O)n1N -1.86%
COc1cccc(-c2nc(-c3ccccc3)nc(N3CCN(C)CC3)c2C#N)c1 -0.782%
COc1ccc(C2CC(c3ccc(OC)c(OC)c3)=NN2S(C)(=O)=O)cc1 (centres undefined) 3.34%
COc1cc2cccc(OC)c(=O)c2c(OC)c1OC -11.7%
